This is an account of results in US20230218776A1, “ANTI-NTB-A ANTIBODIES AND RELATED COMPOSITIONS AND METHODS” (SEAGEN INC., priority 2015, published 2023).

Type in all cases: cell-based
The test system of assay [1] is Normal human T cells. The experiment in a line: ADCC, flow cytometry-based assay with NK effector cells. The settings on record: NK effector to target 10:1, 4 hours. Here is the method: A flow cytometry-based assay was used to measure ADCC activity on normal human T cells. PKH2-labeled normal human T cell targets were bound with titrations of antibody (0.1 ng/mL-10 μg/mL) and then incubated with effector NK cells at an effector to target ratio of 10:1 for 4 hours at 37° C., 5% CO2. Viability was determined by 7-AAD incorporation as measured on the FACsCalibur flow cytometer (BD BioSciences, San Jose, Calif.).

In assay [2] the test system is MM.1R. The assay is described as follows: ADC cytotoxicity, Cell Titer Glo, 96 hours. The settings on record: MM.1R (21000 NTB-A receptors/cell). As for the experimental part: (§1) Humanized antibodies (HDLD) were tested as PBD and auristatin antibody drug conjugates. The antimitotic agent monomethyl auristatin E (MMAE) was conjugated to anti-NTB-A mAbs via a cathepsin-cleavable valine-citrulline (vc) linker. A second auristatin, Auristatin-2 was conjugated to anti-NTB-A mAbs via a peptide linker. For the PBD conjugates, the drug-linker SGD-1910 was conjugated to the anti-NTBA antibody via a thiol group of a cysteine residue introduced at position 239 of the IgG1 chain of the antibody (numbering according to the EU Index) and the average drug load was about 2 drugs per antibody. Antibodies with cysteine at the 239 position carry the designation ec. Preparation was as described in WO2011/130613 using the anti-NTBA antibodies described herein. The ADCs were serially diluted 3-fold in media to produce a 10 point dose curve (1,000 ng/mL-0.05081 ng/mL) and applied to multiple myeloma cells cultured in 96-well assay plates. The cell lines were treated with anti-NTB-A ADCs in quadruplicate and incubated for 96 hours at 37° C., 5% CO2. Cells were assayed for viability using the Cell Titer Glo luminescent cytotoxicity assay (Promega), and data collected using an EnVision plate reader (Perkin Elmer). Dose effect curves and IC50 values were calculated using GraphPad Prism software.
In general terms: Cellular ATP, detected with luciferase, serves as a proxy for viable cell number.

Assay [3] concerns CA46. The assay is described as follows: ADC cytotoxicity, Cell Titer Glo, 96 hours. As to conditions: CA46 (15,000 NTB-A receptors/cell). As for the experimental part: as §1
Assay [4] relates to U-266. The assay is described as follows: ADC cytotoxicity, Cell Titer Glo, 96 hours. As to conditions: U-266 (18300 NTB-A receptors/cell). Here is the method:
as §1

Assay [5] concerns MM.1S. The experiment in a line: ADC cytotoxicity, Cell Titer Glo, 96 hours. As to conditions: MM.1S (14800 NTB-A receptors/cell). As for the experimental part: as §1

B1: h20F3ec-1910(2) (conjugate)
heavy: QIQLVQSGSELKKPGASVKVSCKASGYTFTNYGMNWVRQAPGQDLKWMGWINTYSGEPRYADDFKGRFVFSLDKSVNTAYLQISSLKAEDTAVYYCARDYGRWYFDVWGQGTTVTVSS[sequence of human IgG1 constant region with changes omitted]
light: QIVLSQSPATLSLSPGERATMSCRASSSVSHMHWYQQKPGQAPRPWIYATSNLASGVPARFSGSGSGTDYTLTISSLEPEDFAVYYCQQWSSTPRTFGGGTKVEIKRTVAAPSVFIFPPSDEQLKSGTASVVCLLNNFYPREAKVQWKVDNALQSGNSQESVTEQDSKDSTYSLSSTLTLSKADYEKHKVYACEVTHQGLSSPVTKSFNRGEC
In the case of B1, in assay [1], the “ADCC Maximum % Specific Cell Lysis” value is listed as 19 ± 1.0%. The IC50 (usually the midpoint of a concentration-inhibition curve) in assay [2] was 1 ng/mL; in assay [3], 0.9 ng/mL; in assay [4] it was 8 ng/mL; in assay [5], 1 ng/mL.
